From the supplement of paper PMC4967469

These cell lines were tested with CC1=C(C(=O)Nc2cc3cn[nH]c3cc2F)C(c2ccc(C(F)(F)F)cc2)CC(=O)N1 [GSK429286A] (assay: Viability of human cancer cell lines after 72 h of drug (GDSC screen)). Conditions: top dose inferred.
Experimental: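 Human cancer cell lines in 384-well plates, medium with 10% serum, drug for 72 h over a 256-fold dose range (nine 2-fold or five 4-fold steps up to the top dose). Adherent lines were fixed and stained with the nucleic acid dye Syto60, suspension lines read with resazurin; signal relative to control wells, capped at 0 and 100%. One two-parameter sigmoid per drug and line, fitted in a mixed model over all curves with the slope shared within a line.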
In the case of “D-392MG (glioma, adherent, top dose 20 µM)”, the AUC is reported as 0.959 and the IC50 is reported as > 20 µM.
In the case of “D-423MG (glioma, adherent, top dose 20 µM)”, the AUC is reported as 0.895 and the IC50 is reported as > 20 µM.
“D-502MG (glioma, adherent, top dose 20 µM)” was tested, and the AUC was 0.962 and the IC50 was > 20 µM.
With “D-542MG (glioma, adherent, top dose 20 µM)” the AUC was 0.978 and the IC50 was > 20 µM.
“D-566MG (glioma, adherent, top dose 20 µM)” showed an AUC of 0.863 and an IC50 of 16.8 µM.
“DAN-G (pancreas, adherent, top dose 20 µM)” was tested, and the AUC was 0.985 and the IC50 was > 20 µM.
With “DB (B-cell lymphoma, suspension, top dose 20 µM)” the AUC was 0.941 and the IC50 was > 20 µM.
“DBTRG-05MG (glioma, adherent, top dose 20 µM)” was tested, and the AUC was 0.973 and the IC50 was > 20 µM.
For “DEL (lymphoid neoplasm, suspension, top dose 20 µM)”, the AUC was 0.964 and the IC50 was > 20 µM.
“DG-75 (Burkitt lymphoma, suspension, top dose 20 µM)” was tested, and the AUC was 0.982 and the IC50 was > 20 µM.
With DJM-1 (skin, adherent, top dose 20 µM) the AUC was 0.988 and the IC50 was > 20 µM.
With “DK-MG (glioma, adherent, top dose 20 µM)” the AUC was 0.956 and the IC50 was > 20 µM.
“DMS-53 (small cell lung carcinoma, adherent, top dose 20 µM)” was tested, and the AUC was 0.988 and the IC50 was > 20 µM.
For “DMS-79 (small cell lung carcinoma, suspension, top dose 20 µM)”, the AUC was 0.977 and the IC50 was > 20 µM.
For “DMS-114 (small cell lung carcinoma, adherent, top dose 20 µM)”, the AUC was 0.98 and the IC50 was > 20 µM.
For “DMS-273 (small cell lung carcinoma, adherent, top dose 20 µM)”, the AUC was 0.984 and the IC50 was > 20 µM.
In the case of “DND-41 (T-cell leukaemia, suspension, top dose 20 µM)”, the AUC is reported as 0.905 and the IC50 is reported as > 20 µM.
For “DOK (head and neck, adherent, top dose 20 µM)”, the AUC was 0.976 and the IC50 was > 20 µM.
In the case of DOV13 (ovary, adherent, top dose 20 µM), the AUC is reported as 0.983 and the IC50 is reported as > 20 µM.
“DSH1 (bladder, adherent, top dose 20 µM)” was tested, and the AUC was 0.988 and the IC50 was > 20 µM.
In the case of “DU-145 (prostate, adherent, top dose 20 µM)”, the AUC is reported as 0.98 and the IC50 is reported as > 20 µM.
In the case of “DU-4475 (breast, suspension, top dose 20 µM)”, the AUC is reported as 0.923 and the IC50 is reported as > 20 µM.
“Daoy (medulloblastoma, adherent, top dose 20 µM)” was tested, and the AUC was 0.971 and the IC50 was > 20 µM.
For “Daudi (Burkitt lymphoma, suspension, top dose 20 µM)”, the AUC was 0.953 and the IC50 was > 20 µM.
In the case of “Detroit562 (head and neck, adherent, top dose 20 µM)”, the AUC is reported as 0.969 and the IC50 is reported as > 20 µM.
With “DoTc2-4510 (cervix, adherent, top dose 20 µM)” the AUC was 0.981 and the IC50 was > 20 µM.
With “EB2 (Burkitt lymphoma, suspension, top dose 20 µM)” the AUC was 0.957 and the IC50 was > 20 µM.
For “EB-3 (Burkitt lymphoma, suspension, top dose 20 µM)”, the AUC was 0.957 and the IC50 was > 20 µM.
With “EBC-1 (lung squamous cell carcinoma, adherent, top dose 20 µM)” the AUC was 0.97 and the IC50 was > 20 µM.
In the case of “EC-GI-10 (oesophagus, adherent, top dose 20 µM)”, the AUC is reported as 0.989 and the IC50 is reported as > 20 µM.
For “ECC10 (stomach, suspension, top dose 20 µM)”, the AUC was 0.957 and the IC50 was > 20 µM.
With “EFM-19 (breast, adherent, top dose 20 µM)” the AUC was 0.972 and the IC50 was > 20 µM.
For “EFM-192A (breast, adherent, top dose 20 µM)”, the AUC was 0.986 and the IC50 was > 20 µM.
With “EFO-21 (ovary, adherent, top dose 20 µM)” the AUC was 0.98 and the IC50 was > 20 µM.
For “EFO-27 (ovary, adherent, top dose 20 µM)”, the AUC was 0.97 and the IC50 was > 20 µM.
“EGI-1 (biliary tract, adherent, top dose 20 µM)” was tested, and the AUC was 0.982 and the IC50 was > 20 µM.
“EJM (lymphoid neoplasm, semi-adherent, top dose 20 µM)” was tested, and the AUC was 0.966 and the IC50 was > 20 µM.
With “EKVX (lung adenocarcinoma, adherent, top dose 20 µM)” the AUC was 0.965 and the IC50 was > 20 µM.
Work on “EM-2 (chronic myeloid leukaemia, suspension, top dose 20 µM)” yielded an AUC of 0.755 and an IC50 of 7.58 µM.
With “EMC-BAC-1 (lung adenocarcinoma, adherent, top dose 20 µM)” the AUC was 0.94 and the IC50 was > 20 µM.
In the case of “EMC-BAC-2 (lung adenocarcinoma, adherent, top dose 20 µM)”, the AUC is reported as 0.947 and the IC50 is reported as > 20 µM.
In the case of “EN (endometrium, adherent, top dose 20 µM)”, the AUC is reported as 0.926 and the IC50 is reported as > 20 µM.
With “EPLC-272H (lung squamous cell carcinoma, adherent, top dose 20 µM)” the AUC was 0.953 and the IC50 was > 20 µM.
For “ES1 (Ewing sarcoma, adherent, top dose 20 µM)”, the AUC was 0.953 and the IC50 was > 20 µM.
In the case of “ES3 (Ewing sarcoma, adherent, top dose 20 µM)”, the AUC is reported as 0.943 and the IC50 is reported as > 20 µM.
In the case of “ES4 (Ewing sarcoma, adherent, top dose 20 µM)”, the AUC is reported as 0.974 and the IC50 is reported as > 20 µM.
With “ES5 (Ewing sarcoma, adherent, top dose 20 µM)” the AUC was 0.923 and the IC50 was > 20 µM.
With “ES6 (Ewing sarcoma, adherent, top dose 20 µM)” the AUC was 0.92 and the IC50 was > 20 µM.
Work on “ES7 (Ewing sarcoma, adherent, top dose 20 µM)” yielded an AUC of 0.829 and an IC50 of 12.9 µM.
In the case of “ES8 (Ewing sarcoma, adherent, top dose 20 µM)”, the AUC is reported as 0.9 and the IC50 is reported as > 20 µM.
In the case of ES-2 (ovary, adherent, top dose 20 µM), the AUC is reported as 0.987 and the IC50 is reported as > 20 µM.
In the case of “ESO26 (oesophagus, adherent, top dose 20 µM)”, the AUC is reported as 0.936 and the IC50 is reported as > 20 µM.
With “ESO51 (oesophagus, semi-adherent, top dose 20 µM)” the AUC was 0.974 and the IC50 was > 20 µM.
In the case of “ESS-1 (endometrium, adherent, top dose 20 µM)”, the AUC is reported as 0.931 and the IC50 is reported as > 20 µM.
With “ETK-1 (biliary tract, adherent, top dose 20 µM)” the AUC was 0.983 and the IC50 was > 20 µM.
In the case of “EVSA-T (breast, adherent, top dose 20 µM)”, the AUC is reported as 0.991 and the IC50 is reported as > 20 µM.
“EW-1 (Ewing sarcoma, semi-adherent, top dose 20 µM)” was tested, and the AUC was 0.976 and the IC50 was > 20 µM.
In the case of “EW-3 (Ewing sarcoma, adherent, top dose 20 µM)”, the AUC is reported as 0.977 and the IC50 is reported as > 20 µM.
For “EW-7 (Ewing sarcoma, semi-adherent, top dose 20 µM)”, the AUC was 0.932 and the IC50 was > 20 µM.
For “EW-11 (Ewing sarcoma, adherent, top dose 20 µM)”, the AUC was 0.949 and the IC50 was > 20 µM.
“EW-13 (Ewing sarcoma, suspension, top dose 20 µM)” gave an AUC of 0.829 and an IC50 of 14.3 µM.
For “EW-16 (Ewing sarcoma, adherent, top dose 20 µM)”, the AUC was 0.968 and the IC50 was > 20 µM.
With “EW-18 (Ewing sarcoma, suspension, top dose 20 µM)” the AUC was 0.896 and the IC50 was > 20 µM.
With “EW-24 (Ewing sarcoma, semi-adherent, top dose 20 µM)” the AUC was 0.993 and the IC50 was > 20 µM.
For “EoL-1-cell (haematopoietic neoplasm, suspension, top dose 20 µM)”, the AUC was 0.95 and the IC50 was > 20 µM.
For “FADU (head and neck, adherent, top dose 20 µM)”, the AUC was 0.984 and the IC50 was > 20 µM.
In the case of “FLO-1 (oesophagus, adherent, top dose 20 µM)”, the AUC is reported as 0.934 and the IC50 is reported as > 20 µM.
With “FTC-133 (thyroid, adherent, top dose 20 µM)” the AUC was 0.985 and the IC50 was > 20 µM.
For “FU97 (stomach, adherent, top dose 20 µM)”, the AUC was 0.986 and the IC50 was > 20 µM.
For “FU-OV-1 (ovary, adherent, top dose 20 µM)”, the AUC was 0.982 and the IC50 was > 20 µM.
With “Farage (B-cell lymphoma, suspension, top dose 20 µM)” the AUC was 0.935 and the IC50 was > 20 µM.
For “G-292 Clone A141B1 (osteosarcoma, adherent, top dose 20 µM)”, the AUC was 0.957 and the IC50 was > 20 µM.
With “G-361 (melanoma, adherent, top dose 20 µM)” the AUC was 0.965 and the IC50 was > 20 µM.
For “G-401 (kidney, adherent, top dose 20 µM)”, the AUC was 0.899 and the IC50 was > 20 µM.
“G-402 (soft tissue, adherent, top dose 20 µM)” was tested, and the AUC was 0.906 and the IC50 was > 20 µM.
In the case of “G-MEL (melanoma, adherent, top dose 20 µM)”, the AUC is reported as 0.954 and the IC50 is reported as > 20 µM.
“GAK (melanoma, adherent, top dose 20 µM)” was tested, and the AUC was 0.985 and the IC50 was > 20 µM.
For GAMG (glioma, adherent, top dose 20 µM), the AUC was 0.965 and the IC50 was > 20 µM.
For GB-1 (glioma, adherent, top dose 20 µM), the AUC was 0.967 and the IC50 was > 20 µM.
“GCIY (stomach, adherent, top dose 20 µM)” was tested, and the AUC was 0.984 and the IC50 was > 20 µM.
For “GCT (soft tissue, adherent, top dose 20 µM)”, the AUC was 0.982 and the IC50 was > 20 µM.
“GDM-1 (acute myeloid leukaemia, suspension, top dose 20 µM)” gave an AUC of 0.385 and an IC50 of 0.614 µM.
Cell Line GI-1 (glioma, adherent, top dose 20 µM) has an AUC of 0.815 and an IC50 of 10.4 µM.

IC50 is the fitted dose that halves viability relative to control wells, and lower means more sensitive; fits outside the tested doses are given as limits. For AUC the same curve is integrated over the 256-fold range of doses and scaled to a fraction; values near 1 show little effect. Any top dose called inferred was derived from the fitted curves, not read from the paper.
